According to publication PMC4336329 (PLoS ONE, 2015):
In all, about 310,000 compounds went through this assay and about 2,200 (0.71%) showed an effect of 50% or more. The effect is printed as a negative number. The list shows a part of the results.

Each compound was assayed against human ether-à-go-go-related gene (hERG) potassium channel (human, UniProt Q12809) (assay: primary screen, population patch clamp on CHO cells stably expressing hERG).
Sequence of human ether-à-go-go-related gene (hERG) potassium channel (Q12809 whole entry, looked up): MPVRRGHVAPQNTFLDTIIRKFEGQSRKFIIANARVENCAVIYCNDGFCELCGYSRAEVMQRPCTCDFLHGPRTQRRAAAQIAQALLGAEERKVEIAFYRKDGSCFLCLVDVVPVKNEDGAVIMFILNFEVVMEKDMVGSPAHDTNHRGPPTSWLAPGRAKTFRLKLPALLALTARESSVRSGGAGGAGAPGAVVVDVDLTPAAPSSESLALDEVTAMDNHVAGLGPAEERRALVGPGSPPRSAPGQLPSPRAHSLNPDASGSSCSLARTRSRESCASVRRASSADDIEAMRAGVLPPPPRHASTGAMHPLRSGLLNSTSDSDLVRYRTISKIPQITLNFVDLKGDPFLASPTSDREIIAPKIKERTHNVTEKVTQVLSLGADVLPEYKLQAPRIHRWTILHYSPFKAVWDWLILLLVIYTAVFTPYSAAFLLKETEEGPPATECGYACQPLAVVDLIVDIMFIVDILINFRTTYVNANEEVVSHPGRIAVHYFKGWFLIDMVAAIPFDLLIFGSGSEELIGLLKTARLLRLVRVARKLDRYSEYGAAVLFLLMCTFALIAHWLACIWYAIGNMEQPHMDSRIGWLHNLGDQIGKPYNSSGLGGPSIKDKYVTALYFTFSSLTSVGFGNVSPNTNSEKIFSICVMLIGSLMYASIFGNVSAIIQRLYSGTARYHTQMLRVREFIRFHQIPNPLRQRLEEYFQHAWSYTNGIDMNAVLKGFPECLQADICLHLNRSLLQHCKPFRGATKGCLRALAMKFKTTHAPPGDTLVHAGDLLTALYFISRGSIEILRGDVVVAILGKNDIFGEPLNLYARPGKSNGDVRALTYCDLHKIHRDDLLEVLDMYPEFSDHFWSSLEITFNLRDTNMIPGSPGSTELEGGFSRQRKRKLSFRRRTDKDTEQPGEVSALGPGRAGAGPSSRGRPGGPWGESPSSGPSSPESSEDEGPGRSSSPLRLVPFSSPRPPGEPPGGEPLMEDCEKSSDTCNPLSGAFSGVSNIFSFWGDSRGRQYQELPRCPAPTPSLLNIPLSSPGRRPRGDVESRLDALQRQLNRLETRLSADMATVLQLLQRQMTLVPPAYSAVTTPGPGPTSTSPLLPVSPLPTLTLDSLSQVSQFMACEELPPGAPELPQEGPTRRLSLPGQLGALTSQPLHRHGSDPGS

**Q.** Which “hERG current change (%, negative = inhibition) at 1uM” value does the source give for `COCCN(Cc1cc2cc(C)ccc2[nH]c1=O)S(=O)(=O)c1ccc(Cl)cc1` here?
**A.** 15.2%

**Q.** With `CCOCCCNC(=O)C1CCN(c2cc(C)nc3c(-c4ccc(OC)c(OC)c4)c(C)nn23)CC1` as the compound, how does the “hERG current change (%, negative = inhibition) at 1uM” value read?
**A.** 1.81%

**Q.** For `O=C1CS/C(=N\C(=O)N2c3ccccc3Sc3ccccc32)N1`, which “hERG current change (%, negative = inhibition) at 1uM” value is on record?
**A.** 13.6%

**Q.** Which “hERG current change (%, negative = inhibition) at 1uM” value does the source give for `C=CCOC(=O)c1[nH]c2c(c1C)C(=O)CC(c1ccco1)C2` (stereo not shown) here?
**A.** -1.07%

**Q.** Which “hERG current change (%, negative = inhibition) at 1uM” value does the source give for `O=C(O)CCC(=O)NCC1OCCc2ccccc21` (stereo not shown) here?
**A.** 13.7%

**Q.** Which “hERG current change (%, negative = inhibition) at 1uM” value does the source give for `O=C(NCCc1ccccc1)c1cc(=O)c2ccccc2o1` here?
**A.** 4.61%

**Q.** With `CCC(=O)Nc1cc(NC(=O)CSc2ncc(-c3ccc(F)cc3)n2Cc2ccco2)ccc1C` as the compound, how does the “hERG current change (%, negative = inhibition) at 1uM” value read?
**A.** 16.2%

**Q.** How did the “hERG current change (%, negative = inhibition) at 1uM” value turn out when `CSc1ccc(NC(=O)CC(C)=O)cc1` was run?
**A.** -4.18%

**Q.** Which “hERG current change (%, negative = inhibition) at 1uM” value does the source give for `COc1cc(/C=N/Nc2nc3ccccc3s2)ccc1OC(=O)c1ccccc1F` here?
**A.** 7.42%

**Q.** With `Cc1ccc(SCCC(=O)NC2CC2)cc1` as the compound, how does the “hERG current change (%, negative = inhibition) at 1uM” value read?
**A.** 10.7%

**Q.** With `COCCCNC(=O)Cn1cc(/C=C2\C(=O)NC(=O)N(c3ccccc3F)C2=O)c2ccccc21` as the compound, how does the “hERG current change (%, negative = inhibition) at 1uM” value read?
**A.** 9.61%

**Q.** Which “hERG current change (%, negative = inhibition) at 1uM” value does the source give for `CCN1CCN(C(=O)c2cc3c(s2)-c2ccccc2S(=O)(=O)C3)CC1` here?
**A.** 2.4%

**Q.** With `Cc1ccc(CNC(=O)CC2Nc3c4ccccc4nc(=S)n3C2=O)cc1` (stereo not shown) as the compound, how does the “hERG current change (%, negative = inhibition) at 1uM” value read?
**A.** 53.5%

**Q.** For `CCOc1ccc(-n2c(=O)c3sccc3n(CC(=O)Nc3cccc(OC)c3)c2=O)cc1`, which “hERG current change (%, negative = inhibition) at 1uM” value is on record?
**A.** 13.6%

**Q.** For `Cc1onc(-c2ccccc2Cl)c1C(=O)Nc1ccc(OCC(=O)N2CCOCC2)cc1`, which “hERG current change (%, negative = inhibition) at 1uM” value is on record?
**A.** -2.98%

**Q.** With `COc1cc(NC(=S)N2CCc3ccccc3C2)cc(OC)c1` as the compound, how does the “hERG current change (%, negative = inhibition) at 1uM” value read?
**A.** -1.51%

**Q.** With `Cc1ccc(-c2nn(CC(=O)N(C)C)c(=O)c3ccccc23)cc1S(=O)(=O)N(C)C` as the compound, how does the “hERG current change (%, negative = inhibition) at 1uM” value read?
**A.** 5.75%

**Q.** With `O=C(CCN1C(=O)c2ccccc2C1=O)N1CCCCCC1` as the compound, how does the “hERG current change (%, negative = inhibition) at 1uM” value read?
**A.** 3.21%

**Q.** For `Cc1[nH]c2ccccc2c1C1(O)C(=O)N(Cc2ccc3c(c2)OCO3)c2ccccc21` (stereo not shown), which “hERG current change (%, negative = inhibition) at 1uM” value is on record?
**A.** 7.12%

**Q.** Which “hERG current change (%, negative = inhibition) at 1uM” value does the source give for `CCOC(=O)c1c(-c2ccc(OC)cc2)oc2ccc(OC(=O)N(C)C)cc12` here?
**A.** 7.71%

**Q.** `CC(=O)Oc1ccc(-c2csc(Nc3ccc(Cl)cn3)n2)cc1` was tested. Which “hERG current change (%, negative = inhibition) at 1uM” value did it give?
**A.** 18.2%

**Q.** `COc1ccc(CN2CCN(S(=O)(=O)c3ccccc3)CC2)c(OC)c1.O=C(O)C(=O)O` was tested. Which “hERG current change (%, negative = inhibition) at 1uM” value did it give?
**A.** -18.3%

**Q.** Which “hERG current change (%, negative = inhibition) at 1uM” value does the source give for `COc1cc2cc3c(N)c(C(=O)Nc4sc(C)c(C)c4C#N)sc3nc2cc1OC` here?
**A.** -5.66%

**Q.** For `CCn1nc(C)c(CN2CCc3c([nH]c4ccccc34)C2C(C)(C)C)c1C` (stereo not shown), which “hERG current change (%, negative = inhibition) at 1uM” value is on record?
**A.** 9.7%

**Q.** How did the “hERG current change (%, negative = inhibition) at 1uM” value turn out when `Cc1nc2ccccc2cc1C(=O)N/N=C/c1ccc([N+](=O)[O-])cc1` was run?
**A.** -8.59%

**Q.** `Cc1[nH]nc(Nc2ccc(Br)cc2)c1[N+](=O)[O-]` was tested. Which “hERG current change (%, negative = inhibition) at 1uM” value did it give?
**A.** -1.21%

**Q.** With `CCNc1nc(NCC)nc(N/N=C/c2ccc(Br)cc2)n1` as the compound, how does the “hERG current change (%, negative = inhibition) at 1uM” value read?
**A.** 8.67%

**Q.** How did the “hERG current change (%, negative = inhibition) at 1uM” value turn out when `Cc1ccc(-c2nnc(NC(=O)Cc3ccc(F)cc3)o2)c(C)c1` was run?
**A.** 4.13%

**Q.** With `Cc1ccc(C)c(S(=O)(=O)N(C(=O)c2ccncc2)c2ccc(OC(=O)c3ccncc3)cc2)c1` as the compound, how does the “hERG current change (%, negative = inhibition) at 1uM” value read?
**A.** 12.9%

**Q.** Which “hERG current change (%, negative = inhibition) at 1uM” value does the source give for `C/C(=N\NC(=O)Cn1c(C)nc2ccccc21)c1cccs1` here?
**A.** 1.72%

**Q.** With `Cc1ccccc1Nc1nc(N)nc(CSc2nnc(C)n2C)n1` as the compound, how does the “hERG current change (%, negative = inhibition) at 1uM” value read?
**A.** 18.7%

**Q.** With `CCC(C)N(C)Cc1cccc(C2(O)CCN(S(=O)(=O)c3ccc(F)cc3)CC2)c1` (stereo not shown) as the compound, how does the “hERG current change (%, negative = inhibition) at 1uM” value read?
**A.** -30.8%

**Q.** How did the “hERG current change (%, negative = inhibition) at 1uM” value turn out when `CCCCN(CC)CCNC(=O)CCC(=O)Nc1ccc2nc(N3CCN(C)CC3)cc(C)c2c1` was run?
**A.** 8%

**Q.** `COc1ccccc1CC(=O)NCC1CCCO1` (stereo not shown) was tested. Which “hERG current change (%, negative = inhibition) at 1uM” value did it give?
**A.** 12%

**Q.** `N#Cc1c(-c2ccccc2)c(-c2ccccc2)n[nH]c1=O` was tested. Which “hERG current change (%, negative = inhibition) at 1uM” value did it give?
**A.** 14.8%

**Q.** How did the “hERG current change (%, negative = inhibition) at 1uM” value turn out when `CCOc1cccc(C2C(C#N)=C(N)Oc3cc(C)n(Cc4ccccn4)c(=O)c32)c1OCC` (stereo not shown) was run?
**A.** 17.2%

**Q.** How did the “hERG current change (%, negative = inhibition) at 1uM” value turn out when `CCSc1nc2ccccc2n1CC(=O)OC` was run?
**A.** 6.93%

**Q.** `CN1C(=O)/C(=C/c2cccn2-c2ccc3ccccc3c2)C(=O)NC1=S` was tested. Which “hERG current change (%, negative = inhibition) at 1uM” value did it give?
**A.** 8.27%

**Q.** With `CC(=O)c1ccc(Nc2cc(C)nc3nc(C)nn23)cc1` as the compound, how does the “hERG current change (%, negative = inhibition) at 1uM” value read?
**A.** -21.4%

**Q.** Which “hERG current change (%, negative = inhibition) at 1uM” value does the source give for `CCn1c2ccccc2c2cc(NC(=O)CSc3nccc(=O)[nH]3)ccc21` here?
**A.** 14.7%

**Q.** With `O=C(COc1cccnc1[N+](=O)[O-])Nc1cccc(S(=O)(=O)N2CCCCC2)c1` as the compound, how does the “hERG current change (%, negative = inhibition) at 1uM” value read?
**A.** 8.08%

**Q.** `O=C(Nc1cccc(C(F)(F)F)c1)Nc1ccc2[nH]c(=O)[nH]c2c1` was tested. Which “hERG current change (%, negative = inhibition) at 1uM” value did it give?
**A.** 10.5%

**Q.** `O=C(NC1CCCc2ccccc21)C1CCN(S(=O)(=O)c2cnc[nH]2)CC1` (stereo not shown) was tested. Which “hERG current change (%, negative = inhibition) at 1uM” value did it give?
**A.** 14.5%

**Q.** `CCCCOc1ccc(C(=O)N(Cc2ccco2)C2CCS(=O)(=O)C2)cc1` (stereo not shown) was tested. Which “hERG current change (%, negative = inhibition) at 1uM” value did it give?
**A.** 13.9%

**Q.** For `Clc1ccc2c(N/N=C/c3cccnc3)ccnc2c1`, which “hERG current change (%, negative = inhibition) at 1uM” value is on record?
**A.** -21.6%

**Q.** Which “hERG current change (%, negative = inhibition) at 1uM” value does the source give for `CCOC(=O)C(CC)(CCC(=O)O)c1csc(Nc2ccc(C)cc2)n1` (stereo not shown) here?
**A.** 11.8%

**Q.** With `CC(NC(=O)CNC(=O)[C@@H]1Cc2ccccc2CN1)c1ccccc1` (stereo partly shown) as the compound, how does the “hERG current change (%, negative = inhibition) at 1uM” value read?
**A.** 7%

**Q.** Which “hERG current change (%, negative = inhibition) at 1uM” value does the source give for `CCc1cccc(NC(=O)COC(=O)C2CCN(c3ccc(C(F)(F)F)cn3)CC2)c1` here?
**A.** 7.33%

**Q.** With `COc1ccc2c(c1)C(=O)N(c1ccccc1OC)C(=O)C2` as the compound, how does the “hERG current change (%, negative = inhibition) at 1uM” value read?
**A.** 15.1%

**Q.** How did the “hERG current change (%, negative = inhibition) at 1uM” value turn out when `CC(=O)C1=C(O)C(=O)N(Cc2cccnc2)C1c1ccc(Cl)cc1` (stereo not shown) was run?
**A.** 12.2%

**Q.** How did the “hERG current change (%, negative = inhibition) at 1uM” value turn out when `CCOCc1nnc(NC(=O)C2CCN(C(=O)c3ccco3)CC2)s1` was run?
**A.** 14.4%

**Q.** For `CNC(=O)C(Sc1nc(C)nc2c1oc1ccccc12)C(C)=O` (stereo not shown), which “hERG current change (%, negative = inhibition) at 1uM” value is on record?
**A.** 10.4%

**Q.** Which “hERG current change (%, negative = inhibition) at 1uM” value does the source give for `CCc1nnc(NC(=O)c2sc3nc4c(cc3c2N)CCCCCC4)s1` here?
**A.** 8.62%

**Q.** For `CCOC(=O)C1=C(C)Nc2nc3ccccc3n2C1c1ccc(O)cc1` (stereo not shown), which “hERG current change (%, negative = inhibition) at 1uM” value is on record?
**A.** 10.5%

**Q.** How did the “hERG current change (%, negative = inhibition) at 1uM” value turn out when `O=C(COc1ccc(Br)cc1)Nc1ccc2oc(=O)ccc2c1` was run?
**A.** 6.49%
